Results on 31 molecules are retold here after PubChem BioAssay AID1745853 (National Center for Advancing Translational Sciences (NCATS), 2022).

This is one part of the list. The main result of the screen is listed elsewhere. These columns were measured beside it and carry no call.

Holding throughout (experiment): Primary Screen for Target Class Profiling of Small Molecule Inhibitors of Methyltransferases
The target of assay [1] is Glycine N-methyltransferase (Homo sapiens) (UniProt Q14749). The note with it: purified enzyme, MTase-Glo SAH luminescence; measured here: GNMT inhibition; at 40 µM; stronger effect = lower value. The method, boiled down: (§1)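 Each enzyme was reacted with SAM and its substrate, with compounds tested once at 40 uM; SAH formed was read by MTase-Glo luminescence.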
In assay [2] the target is Guanidinoacetate N-methyltransferase (Homo sapiens) (UniProt Q14353). As to conditions: purified enzyme, MTase-Glo SAH luminescence; measured here: GAMT inhibition; at 40 µM; stronger effect = lower value. In short, it runs like this:
as §1

Assay [3] addresses Histamine N-methyltransferase (Homo sapiens) (UniProt P50135). As to conditions: purified enzyme, MTase-Glo SAH luminescence; measured here: HNMT inhibition; at 40 µM; stronger effect = lower value. The method, boiled down: as §1
Assay [4] deals with Nicotinamide N-methyltransferase (Homo sapiens) (UniProt P40261). As to conditions: purified enzyme, MTase-Glo SAH luminescence; measured here: NNMT inhibition; at 40 µM; stronger effect = lower value. The method, boiled down: as §1
The target in assay [5] is Phenylethanolamine N-methyltransferase (Homo sapiens) (UniProt P11086). As to conditions: purified enzyme, MTase-Glo SAH luminescence; measured here: PNMT inhibition; at 40 µM; stronger effect = lower value. The method, boiled down: as §1
% is scaled to controls: 0 for no effect and ±100 for the full control effect.

Take `COC(=O)c1cc2n(n1)CCCN(C(=O)COc1ccc(C)c(C)c1)C2`: the activity change, negative = inhibition in assay [1] is -1.57%; in assay [2], -0.14%; in assay [3] it was -0.901%; in assay [4], -6.58%; in assay [5], 0.194%.
For `Cn1c(=O)n(C)c2cc(S(=O)(=O)NCC3CCCO3)ccc21` (stereo not given), the activity change, negative = inhibition is -3.09% in assay [1]; 2.77% in assay [2]; -5.62% in assay [3]; -7.94% in assay [4]; -9.11% in assay [5].
With `NC(=O)c1cccc(CC2CCN(C(=O)c3ccnc(-n4cnnc4)c3)C2)c1` (stereo not given), the activity change, negative = inhibition is -2.73% in assay [1]; -3.85% in assay [2]; -8.05% in assay [3]; -9.02% in assay [4]; 2.49% in assay [5].
For `COCCn1c(=O)c2c(n1Cc1ccccc1)CN(C(=O)c1cc3ccccc3[nH]1)CC2`, the activity change, negative = inhibition is -10.5% in assay [1]; -6.77% in assay [2]; -1.59% in assay [3]; -11.1% in assay [4]; -1.43% in assay [5].
Consider `CCCNC(=O)N1CCCCC1c1n[nH]c(C)n1` (stereo not given), for which the activity change, negative = inhibition in assay [1] was -6.16%; in assay [2] it was -6.69%; in assay [3] it was -3.05%; in assay [4], -12.3%; in assay [5], -2.33%.
`CCC(C)NC(=O)c1ccc2c(=O)n(C)c3nnc(SCC(=O)Nc4cccc(OC)c4)n3c2c1` (stereo not given): the activity change, negative = inhibition in assay [1] came to 9.85%; in assay [2], 0%; in assay [3] it was 10.7%; in assay [4], 9.89%; in assay [5], 6.28%.
The corresponding values for `COCCN1C(=O)c2cc3sccc3n2CC1(C)C(=O)NC1CCCCCCC1` (stereo not given) are -2.25%, 3.19%, -1.64%, -4.98% and -3.59%.
Regarding `COc1ccc(C(=O)NC2CCN(c3nc4ncccc4o3)CC2)cc1`, the activity change, negative = inhibition in assay [1] is -8.74%; in assay [2], -14.6%; in assay [3], -4.17%; in assay [4], -14.8%; in assay [5] it was -9.52%.
With `N#Cc1cc(F)cc(-c2nc(-c3ccccn3)no2)c1`, the activity change, negative = inhibition in assay [1] is -16.6%; in assay [2] it was -11.4%; in assay [3] it was -9.64%; in assay [4], -33.2%; in assay [5], -8.94%.
As to `COc1ccc(NC(=O)CN(C)S(=O)(=O)c2ccc3[nH]c4c(c3c2)CCCC4)cc1OC`, the activity change, negative = inhibition was -7.27% in assay [1]; 3.49% in assay [2]; -4.1% in assay [3]; -5.39% in assay [4]; -4.63% in assay [5].
For `CC(C)NC(=O)c1ccc2c(=O)n(C(C)C)c3nn(CC(=O)Nc4cccc(Cl)c4)c(=O)n3c2c1`, the activity change, negative = inhibition in assay [1] was 4.8%; in assay [2] it was 0.265%; in assay [3], 3.87%; in assay [4] it was -0.774%; in assay [5] it was 9.29%.
As for `CN(Cc1ccc(F)cc1)S(=O)(=O)c1cccs1`, the activity change, negative = inhibition in assay [1] was -1.7%; in assay [2], -0.579%; in assay [3], 0.422%; in assay [4], -5.65%; in assay [5] it was 1.44%.
The corresponding values for `CC(C)CCn1c(=O)c2ccc(C(=O)NCC(C)C)cc2n2c(=O)n(Cc3cccc(Cl)c3)nc12` are 7.94%, 1.23%, 11.7%, 3.94% and 7.22%.
`CCCn1c(=O)c2ccccc2n2c(SCc3cccc(Cl)c3)nnc12`: the activity change, negative = inhibition is -8.69% in assay [1]; 9.9% in assay [2]; 2.76% in assay [3]; -13.2% in assay [4]; 3.03% in assay [5].
With `COc1ccccc1CN1C(=O)c2cc3oc(C)cc3n2CC1(C)C(=O)NC1CCCCCC1` (stereo not given), the activity change, negative = inhibition in assay [1] is -1.19%; in assay [2], 4.02%; in assay [3] it was -0.635%; in assay [4], 0.776%; in assay [5], 0.158%.
For the molecule `CCCCS(=O)(=O)NC1CCc2nn(CC3CC3)c(=O)n2CC1` (stereo not given), the activity change, negative = inhibition was -2.81% in assay [1]; -6.12% in assay [2]; 0.649% in assay [3]; -8.65% in assay [4]; -3.9% in assay [5].
For the molecule `Cc1ccccc1C(=O)N1CCC2(CC1)CC(c1cccc(C(F)(F)F)c1)=NO2`, the activity change, negative = inhibition in assay [1] is -10.1%; in assay [2], -6.37%; in assay [3], -5.17%; in assay [4], -16.7%; in assay [5] it was -13.6%.
For `O=c1c2ccccc2n2c(=O)n(Cc3cccc(Cl)c3)nc2n1CCc1ccccc1` the same measures were -2.88%, -6.02%, 10.6%, -4.35% and -3.32%.
As for `COc1cc(OC)cc(N2C(=O)CSc3c(c4ccccc4n3C)C2C(=O)NCc2ccc(F)cc2)c1` (stereo not given), the activity change, negative = inhibition in assay [1] was -4.08%; in assay [2], 0.61%; in assay [3] it was 2.69%; in assay [4], 1.2%; in assay [5], 4.71%.
Consider `CC1(C)CC2C=C(C(=O)O)C3COC(=O)C(O)(CO)C23C1` (stereo not given), for which the activity change, negative = inhibition in assay [1] is -1.9%; in assay [2], 0.102%; in assay [3] it was 0.251%; in assay [4], -10.5%; in assay [5], -0.182%.
As to `Cc1nc(N)sc1-c1ccnc(Nc2ccc(N3CCOCC3)cc2)n1`, the activity change, negative = inhibition was -27.9% in assay [1]; -4.75% in assay [2]; -4.2% in assay [3]; -14.5% in assay [4]; -4.91% in assay [5].
Consider `COc1ccc(CCN2C(=O)c3cc4sccc4n3CC2(C)C(=O)NC2CCCCC2)c(OC)c1` (stereo not given), for which the activity change, negative = inhibition in assay [1] was 2.4%; in assay [2] it was 0%; in assay [3] it was -0.889%; in assay [4], 2.02%; in assay [5] it was 1.31%.
On to `Cc1ccc(CN2CC[C@H](c3nnc(-c4ccco4)o3)C2)o1`, for which the activity change, negative = inhibition in assay [1] is -5.56%; in assay [2], -4.38%; in assay [3], -1.07%; in assay [4], -9.71%; in assay [5] it was -0.963%.
As for `CC(O)c1cc2n(n1)CCCN(c1ncnc3ccsc13)C2` (stereo not given), the activity change, negative = inhibition was -5.13% in assay [1]; 0.28% in assay [2]; -0.788% in assay [3]; -3.07% in assay [4]; 1.23% in assay [5].
For `C=CCn1c(=O)c2ccc(C(=O)NC(C)CC)cc2n2c(=O)n(CC(=O)NCc3ccccc3)nc12` (stereo not given) the same measures were 1.06%, 3.42%, -2.31%, -5.44% and -2.1%.
As for `COC(=O)c1ccc(OC)cc1O[C@@H]1O[C@H](CO[C@@H]2OC[C@@H](O)[C@H](O)[C@H]2O)[C@@H](O)[C@H](O)[C@H]1O`, the activity change, negative = inhibition in assay [1] was 1.07%; in assay [2] it was 2.54%; in assay [3], 7.54%; in assay [4], -9.64%; in assay [5], 5.62%.
The corresponding values for `O=C(Cn1nc2nc(Nc3ccc(F)cc3)ccn2c1=O)NC1CCCC1` are 6.15%, 0%, 11%, 2.74% and 5.59%.
As for `Cc1ccc(-c2n[nH]n3c2nc(=O)c2ccc(C(=O)N4CCN(c5ccccc5)CC4)cc23)cc1`, the activity change, negative = inhibition is -5% in assay [1]; -0.42% in assay [2]; -4.09% in assay [3]; 1.16% in assay [4]; 0.53% in assay [5].
Regarding `COc1cc(C2OCC3C(c4ccc(OC5OC(CO)C(O)C(O)C5O)c(OC)c4)OCC23)ccc1O` (stereo not given), the activity change, negative = inhibition in assay [1] is -3.68%; in assay [2], -8.21%; in assay [3], 5.07%; in assay [4], -17.5%; in assay [5], -7.82%.
For `CO[C@H](C)[C@H](N)C(=O)N1CCC(c2cc(Cc3ccccc3)[nH]n2)CC1`, the activity change, negative = inhibition was 0.427% in assay [1]; 3.85% in assay [2]; 2.83% in assay [3]; -5.66% in assay [4]; 0.181% in assay [5].
Turning to `COC(=O)c1ccccc1O[C@@H]1O[C@H](CO)[C@@H](O)[C@H](O)[C@H]1O[C@@H]1O[C@@H](C)[C@H](O)[C@@H](O)[C@H]1O`, the activity change, negative = inhibition was -1.84% in assay [1]; 2.73% in assay [2]; 0.618% in assay [3]; -8.31% in assay [4]; 1.58% in assay [5].
